Data on 109 molecules can be found in PubChem BioAssay AID1240 (Sanford-Burnham Center for Chemical Genomics, 2008).

SMILES strings stand for the structures. Out of some 50,000 compounds screened, about 800 (1.6%) showed an effect of 50% or more. The list shows a part of the results.

The test concerns the target Bcl-2-like protein 10 (Homo sapiens) (UniProt Q9HD36). The test is described as follows: Phenotype converters, Bcl-B/TR3 peptide binding displacement, primary biochemical FP (AID 1240).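 Also: 0% = Bcl-B with tracer peptide and DMSO and 100% = tracer peptide lacking Bcl-B.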 The conditions noted are these: GST-Bcl-B / FITC-TR3 peptide fluorescence polarization; stronger effect = higher value; compound at 3.75 mg/L. On the technique in general: In fluorescence polarisation assays a small probe gives low polarisation when free and higher when bound to something large.
UniProt Q9HD36, sequence (Q9HD36 whole entry, looked up): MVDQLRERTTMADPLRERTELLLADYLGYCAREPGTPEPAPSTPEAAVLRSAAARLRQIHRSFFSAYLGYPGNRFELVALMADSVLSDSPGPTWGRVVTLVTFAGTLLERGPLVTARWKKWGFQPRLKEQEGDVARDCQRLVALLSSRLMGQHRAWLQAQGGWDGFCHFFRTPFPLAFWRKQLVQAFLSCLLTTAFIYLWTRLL
For `O=c1c(-c2ccccc2)[n+]([O-])c2ccccc2n1O`, the displacement stood at 21.7%.
The figure for `CCN(CC)c1ccc(/C=C2/SC(=S)N(CNc3cccc(C)c3)C2=O)cc1` is -7.4%.
In the case of `COC(=O)C1=C(C)N(Cc2ccco2)C(=O)/C1=C\c1ccc(O)c(OC)c1` it was 8.1%; in that of `CCCOc1cc(OCCC)c(C#CCN2CCCCC2)cc1C#CCN1CCCCC1`, 3.4%; in that of `CCOC(=O)C(C#N)C1(c2ccc(OC)cc2)CCOC(C)(CC)C1` (centres undefined), 1.2%.
Turning to `C=C1CSc2nc(=O)c3c4c(sc3n21)CCC4`, the displacement was determined as 11.7%.
In the case of `CCOC(=O)c1ccccc1NC(=O)CN(c1cc(OC)ccc1OC)S(C)(=O)=O` it was 13.6%; in that of `CC(=O)Nc1ccccc1C(=O)N1CCc2ccccc2C1`, -5.9%.
The figure for `COc1cc(C(=O)N(C)Cc2ccccc2)c([N+](=O)[O-])cc1OC` is -1.4%.
On to `Cc1ccccc1C(=O)NN1C(=O)/C(=C\c2ccncc2)SC1=S`, for which the displacement turned out to be 12.3%.
As for `O=C(Nc1ccc(Cl)cc1)Nc1nnc(CSCc2ccccc2)s1`, the displacement worked out at 4.7%.
The figure for `CCOC(=O)c1nc2nc(-c3ccccc3)cc(C(F)(F)F)n2n1` is -3.5%.
Take `O=C1C=C(Nc2ccc([N+](=O)[O-])cc2)CN1`: the displacement is 4.5%.
Turning to `COc1ccccc1NC(=O)c1ccc(CN2CCOCC2)cc1`, the displacement is -21.5%.
In the case of `O=C(NCCc1ccc(Cl)cc1)C(=O)NCc1ccccc1` it was 8%; in that of `COc1ccc(OC)c(NC(=O)Cc2ccc([N+](=O)[O-])cc2)c1`, 6.6%; in that of `O=C(Nc1ccc(Br)cn1)c1cc2ccccc2o1`, 1.2%.
In the case of `O=C(c1sc2ccccc2c1Cl)N1CCN(Cc2ccc3c(c2)OCO3)CC1`, the displacement came to 0.4%.
In the case of `COc1ccc(S(=O)(=O)N2CCN(CCN3C(=O)c4cccc5cccc(c45)C3=O)CC2)cc1` it was -3.8%; in that of `CCN(CC)c1ccc(N2C(=O)/C(=C/c3ccccc3[N+](=O)[O-])SC2=S)cc1`, -5.2%.
The figure for `Cc1cccc(CN2CCN(C(=O)c3ccc(F)cc3)CC2)c1` is -17.7%; for `O=C(c1ccc(F)cc1)N1CCN(c2cccc(Cl)c2)CC1` it is 2.4%; for `COc1ccc(Cl)cc1C(=O)N(C)c1ccccc1` it is -2.5%.
In the case of `Cc1ccccc1NCC(=O)N/N=C\c1ccc(Cl)c([N+](=O)[O-])c1` it was 6.9%.
For `CCOP(=O)(OCC)/C(=C(\NC(=O)c1ccccc1)C(=O)Nc1ccccc1C(F)(F)F)c1ccccc1`, the displacement amounted to 12.2%.
Regarding `C=C(C)Cn1c(SCC(=O)O)nnc1-c1ccc(C(C)(C)C)cc1`, the displacement was 2.2%.
`COc1ccc(CC(=O)N2N=C(c3ccc(F)cc3)CC2(O)C(F)(F)F)cc1` (centres undefined): the displacement was -12.5%.
The figure for `COCCCNC(=O)COc1ccc2ccccc2c1` is 10.7%; for `CC(C)OC(=O)c1c(-c2ccc(Cl)cc2Cl)csc1NC(=O)/C=C/C(=O)O` it is -7.5%.
The figure for `COc1cccc(-c2nc3cc(NC(=O)c4ccc(Br)o4)ccc3o2)c1` is -4.8%.
Consider `Cc1ccccc1OCC(=O)Nc1ccc(Br)cn1`, for which the displacement stood at 3.1%.
In the case of `CC1=C(C(=O)Nc2ccccc2)C(c2ccccc2F)NC(=S)N1` (centres undefined) it was 1.4%; in that of `O=C(NCc1cccnc1)c1nn2c(c1Cl)NC(c1ccccc1)CC2C(F)(F)F` (centres undefined), 6.2%.
The figure for `O=[N+]([O-])c1ccc(C=NN2CCN(Cc3ccccc3)CC2)cc1` is -2.6%.
The figure for `CCOCCOC(=O)C1=C(C)N(C)C(=O)NC1c1ccccc1Cl` (centres undefined) is -24.3%.
Consider `CCOC(=O)C1=C(C)N(CC(C)C)C(=O)/C1=C\c1ccco1`, for which the displacement stood at 12.3%.
For the molecule `O=C(COc1ccccc1)N1N=C(c2ccc([N+](=O)[O-])cc2)CC1(O)C(F)(F)F` (centres undefined), the displacement was -12.5%.
As to `O=C(Nc1ccccc1I)c1ncn[nH]1`, the displacement is -0.6%.
As for `Cc1ccc(-c2nc3ccccc3c(=O)n2CCCn2ccnc2)cc1`, the displacement was -8.9%.
In the case of `O=[N+]([O-])c1ccc(/C(=N/O)c2ccncc2)cc1` it was 9.5%.
The figure for `O=C1CSC(=S)N1/N=C/c1cccc(OCCOc2ccc(Br)cc2)c1` is 10%.
The figure for `COc1ccc(OC)c(C2NC(=S)NC(C)=C2C(=O)Nc2ccccc2OC)c1` (centres undefined) is 1.1%; for `CCOc1ccccc1/C=C(/NC(=O)c1ccccc1)C(=O)N1CCOCC1` it is 10.4%.
On to `O=[N+]([O-])c1ccc2c(c1)C(C#Cc1ccccc1)C1CCCCC1(N1CCOCC1)O2` (centres undefined), for which the displacement is 11%.
In the case of `O=C(c1ccccc1Cl)N1N=C(c2ccc(Cl)cc2)CC1(O)C(F)(F)F` (centres undefined) it was 2.3%.
In the case of `COc1ccc(S(=O)(=O)N2CCN(Cc3cc(OC)c(OC)c(OC)c3)CC2)cc1` it was -7.7%.
The figure for `O=C(Nc1cccc(Cl)c1)/C(=C\c1ccco1)NC(=O)c1cccs1` is -3.8%; for `O=C(NCc1ccccn1)C(=O)Nc1ccccc1F` it is -20.9%.
Consider `CCc1ccccc1NC(=O)COc1ccc2ccccc2c1`, for which the displacement amounted to 5.2%.
The figure for `CCN(CC)c1ccc(NC(=O)C(C)(C)C)cc1` is 10.5%; for `CC1CCCC(C)N1C(=O)c1nn2c(c1Cl)NC(c1ccc(Cl)cc1)CC2C(F)(F)F` (centres undefined) it is 8.1%; for `CC1(C)CC(=O)C(=Cc2cn(-c3ccccc3)nc2-c2ccccc2)C(=O)C1` it is 8.7%.
In the case of `Cc1ccoc1C(=O)Nc1ccccc1` it was 14.2%; in that of `CN1CCN(C2=C(Cl)C(=O)N(c3ccc(Br)cc3)C2=O)CC1`, 15.9%.
For `Clc1ccc(-c2nnc(-c3ccccc3)o2)cc1`, the displacement amounted to 10.6%.
Take `CCOC(=O)C1=C(C)N=c2s/c(=C\c3c[nH]c4ccccc34)c(=O)n2C1c1cccc(OC)c1` (centres undefined): the displacement is 32.8%.
In the case of `Cc1c(Br)c(C(F)(F)F)nn1CC(=O)Nc1c(F)cc(F)cc1Br` it was -4%; in that of `CCOc1ccc(N(CC(=O)N2CCOCC2)S(=O)(=O)c2ccccc2)cc1`, -4.4%.
In the case of `Cc1ccc(-c2cc(NC(=O)c3cccc(C)c3)n[nH]2)cc1` it was 16.3%.
The figure for `Cc1ccc(N2CCN(C(=O)Nc3ccc(Cl)cc3Cl)CC2)cc1` is 5.9%; for `O=C1CC(n2ccnc2)C(=O)N1c1ccccc1` (centres undefined) it is -3.4%; for `CC(Oc1ccc2oc(-c3ccccc3)c(C(=O)O)c2c1)C(=O)O` (centres undefined) it is 59.2%.
In the case of `CCCC1CCc2c(sc(N)c2C(N)=O)C1` (centres undefined), the displacement is 5.6%.
The figure for `CC(=O)Nc1ccc(NS(=O)(=O)c2ccc(C)cc2C)cc1` is 23.6%; for `Ic1ccc(N/N=C/c2ccc(N3CCOCC3)cc2)cc1` it is 10%; for `O=C(Nc1ccccc1C(=O)O)c1cccc(S(=O)(=O)Nc2ccc(F)cc2)c1` it is 2.8%.
In the case of `CCOc1ccc(S(=O)(=O)N2CCN(c3ccccc3OC)CC2)cc1` it was -5.8%; in that of `CCOc1ccccc1N(CC(=O)Nc1cccc(C(F)(F)F)c1)S(=O)(=O)c1ccccc1`, 1.6%.
The figure for `COc1ccc(N(CC(=O)Nc2cc(C)ccc2C)S(=O)(=O)c2ccc(C)cc2)cc1` is 4.5%.
With `COc1cccc(CN2CCN(Cc3cccnc3)CC2)c1`, the displacement is -13.5%.
In the case of `CN(C)/C=C1\N=C(c2ccc(C(C)(C)C)cc2)OC1=O` it was 0.4%; in that of `CN(C)c1ccc(C2C(C(=O)OC(C)(C)C)C(=O)CC(C)(O)C2C(=O)OC(C)(C)C)cc1` (centres undefined), -5.1%.
The figure for `CCOC(=O)COc1ccc(/C=C2\C(=O)NC(=O)N(c3ccc(C)cc3)C2=O)cc1OC` is 4.1%; for `CCN(CC)c1ccc(NC(=O)c2ccc(OC)c([N+](=O)[O-])c2)cc1` it is 8%.
For the molecule `CCc1cc(=O)oc2cc(OCc3ccc(Cl)cc3)ccc12`, the displacement came to 0%.
In the case of `CCN1C(=O)c2ccccc2S1(=O)=O` it was -5.9%.
The figure for `CCCCCCCC(=O)N/N=C/c1c[nH]c2ccccc12` is -5.7%.
The figure for `CCSc1nnc(NC(=O)/C=C/c2ccc(C(C)(C)C)cc2)s1` is -2.5%; for `Cc1cc(C)n(-c2nc(C)nc(NCc3ccccc3)n2)n1` it is -16.2%.
For `Cc1ccc(Cl)cc1NC(=O)C(=O)NCCO`, the displacement was -14.9%.
Consider `O=C(c1sc2cc(Cl)ccc2c1Cl)N1CCOCC1`, for which the displacement was determined as 2%.
The figure for `C=CCNC(=O)C(NC(=O)c1ccccc1)=C1CCCCC1` is -11.3%.
The figure for `CCc1ccc(NC(=O)CN(c2cccc(Cl)c2)S(=O)(=O)c2ccccc2)cc1` is -12.3%; for `CCc1ccccc1NC(=O)CC1S\C(=N/N=C(C)/C=C/c2ccc(OC)cc2)NC1=O` (centres undefined) it is 14.7%.
The figure for `O=C(COc1ccc(Br)cc1)Nc1ccc2c(c1)oc1ccccc12` is -2.6%; for `COc1cc(OC)c(NC(=O)c2ccc(Cl)c(Cl)c2)cc1Cl` it is 2.9%; for `N/C(=N\OC(=O)c1ccc(Br)cc1)c1ccc([N+](=O)[O-])cc1` it is 5.6%.
With `Cc1ccc(S(=O)(=O)N(CC(=O)Nc2ccccc2F)c2cc(C)cc(C)c2)cc1`, the displacement is -3%.
The figure for `COc1ccc(S(=O)(=O)N(CCc2ccccc2)CC(=O)N2CCCC2)cc1` is -12.5%.
The figure for `CC(=NCCc1ccccc1)C1=C(O)CSC1=O` is 13.6%; for `COc1cccc(-c2cc(C(=O)Nc3sc(C)c(C)c3C(N)=O)c3ccccc3n2)c1` it is -5.6%.
The figure for `CCCOc1ccc(/C=N/N=C/c2ccc(OCCC)cc2)cc1` is -1.1%; for `COc1ccc(N=Cc2c(O)n(-c3ccc(F)cc3)c(=O)[nH]c2=O)c(OC)c1` it is -10.5%.
As to `COc1cc(/C=N/n2cnnc2)ccc1O`, the displacement came to 11.6%.
The figure for `Cc1cc(C)n(-c2cc(NCCO)nc(-c3ccc(Br)cc3)n2)n1` is -0.9%.
In the case of `O=C(Nc1ccccc1C(=O)O)c1ccc2c(c1)C(=O)N(C1CCCCC1)C2=O` it was 15.1%; in that of `Cc1ccc(OCC(=O)Nc2cc(Cl)cc(Cl)c2)cc1C`, 6.5%.
For the molecule `Cc1ccc(-n2[nH]c(=O)c(/C=C3\C=Nc4ccccc43)c2O)cc1`, the displacement was -0.9%.
On to `O=C(CN1C(=O)c2ccccc2C1=O)Nc1ccccc1Br`, for which the displacement was -5%.
`COc1cc([N+](=O)[O-])ccc1NC(=O)c1cccc(F)c1`: the displacement worked out at 14.9%.
The figure for `CC1(C)C(C=C(Cl)Cl)C1C(=O)ON1C(=O)CCC1=O` (centres undefined) is -7.2%.
`O=C(Nc1ccn(-c2ccccc2)n1)c1ccc(Cl)cc1`: the displacement worked out at 5%.
The figure for `CCOc1ccc(C(=O)N2CCN(c3ccc([N+](=O)[O-])cc3Cl)CC2)cc1` is -7%; for `O=C(Nc1ccncc1)c1ccccc1Oc1ccccc1` it is -8.2%.
In the case of `Cc1ccc2nc(-c3ccc(N=Cc4cccc(O)c4O)cc3)sc2c1` it was -3%; in that of `O=c1oc(-c2cccs2)nc2cc([N+](=O)[O-])ccc12`, 1.1%; in that of `CC1=C(C(=O)OCc2ccccc2)C(c2sccc2C)NC(=S)N1` (centres undefined), 12.6%.
Regarding `COc1ccc(C2C(C(=O)OC(C)C)=C(C)N=c3s/c(=C\c4cc(OC)ccc4OC)c(=O)n32)cc1` (centres undefined), the displacement came out at 6.4%.
The figure for `O=C(Nc1ccc(Br)cc1C(=O)O)c1cccc(N2C(=O)c3ccccc3C2=O)c1` is -9.5%.
